Test results reported in a compilation of properties of binary mixtures (doi:10.1021/je0498457).
Some of these densities may be calculated back from excess volumes.

Test: xn = mol fraction of the nth substance listed
Conditions: 100 kPa

C1CCOCC1 + CCCCO
Conditions | mass density [kg/m3]
283.15 K, x1 = 0.3039 | 841.8
283.15 K, x1 = 0.4059 | 849.8
283.15 K, x1 = 0.4905 | 856.3
283.15 K, x1 = 0.6081 | 865.2
283.15 K, x1 = 0.8027 | 879.8
298.15 K, x1 = 0.0508 | 809.8
298.15 K, x1 = 0.1039 | 814.1
298.15 K, x1 = 0.2056 | 822.1
298.15 K, x1 = 0.305 | 829.8
298.15 K, x1 = 0.406 | 837.4
298.15 K, x1 = 0.4909 | 843.7
298.15 K, x1 = 0.6079 | 852.2
298.15 K, x1 = 0.7054 | 859.3
298.15 K, x1 = 0.8047 | 866.5
298.15 K, x1 = 0.9043 | 873.7
298.15 K, x1 = 0.958 | 877.6
313.15 K, x1 = 0.1039 | 802.2
313.15 K, x1 = 0.2027 | 809.4
313.15 K, x1 = 0.3254 | 818.3
313.15 K, x1 = 0.4883 | 829.7
313.15 K, x1 = 0.6215 | 838.8
313.15 K, x1 = 0.8037 | 851.1
313.15 K, x1 = 0.8978 | 857.5
